# Experimental data as given in the antibiotic and cytotoxicity screens of Wong et al. (2023).
# The other results are listed elsewhere or left out.
# Tests used:
# [1] = test system: HSkMC (human skeletal muscle cells); assay: cytotoxicity call (relative viability < 0.9); conditions: 10 µM
# [2] = test system: HepG2; assay: cytotoxicity call (relative viability < 0.9); conditions: 10 µM
# [3] = test system: S. aureus RN4220; assay: growth inhibition call (relative growth <= 0.2); conditions: 50 µM
SMILES,cytotoxicity call [1],cytotoxicity call [2],growth inhibition call [3]
Cl.Nc1ncnc(Nc2ccc(Cl)cc2)n1,inactive,inactive,inactive
C=C1c2cccc(O)c2C(=O)C2=C(O)C3(O)C(=O)C(C(N)=O)=C(O)C(N(C)C)C3C(O)C12.Cl (stereo not drawn),inactive,inactive,inactive
CCc1nnc(N)[nH]1,inactive,inactive,inactive
COc1cccc(C(=O)Nc2ccc3c(c2)C(=O)N(C)[C@@H]2CC[C@@H](CC(=O)NCC4CC4)O[C@@H]2CO3)c1,inactive,inactive,inactive
C=C(CC[C@@H](C)[C@H]1CC[C@@]2(C)C3=C(C[C@H](O)[C@]12C)[C@@]1(C)CC[C@@H](OC(=O)CC(=O)O)C(C)(C)[C@@H]1CC3)[C@@H](C)C(=O)O,inactive,inactive,inactive
O=C(C[C@H]1C[C@@H]2c3cc(NC(=O)c4ccc5c(c4)OCO5)ccc3O[C@@H]2[C@H](CO)O1)NCCN1CCCCC1,inactive,inactive,inactive
CC(=O)[C@@]12O[C@]3(COC[C@H](c4ccccc4)N3C1=O)[C@@H]1C(=O)N(C)C(=O)[C@@H]12,inactive,inactive,inactive
C[C@@H]1CN([C@@H](C)CO)C(=O)c2cc(C#Cc3ccccn3)cnc2O[C@H]1CN(C)C(=O)c1cnccn1,inactive,inactive,inactive
O=C(C[C@H]1CC[C@H]2NC[C@@H](O)COC[C@@H]2O1)NCCN1CCCCC1,inactive,inactive,inactive
C[C@@H]1CCCCO[C@H](CN(C)C(=O)C2CCCCC2)[C@@H](C)CN([C@@H](C)CO)C(=O)c2cc(NC(=O)C3CCCCC3)ccc2O1,inactive,inactive,inactive
CO[C@@H](C)n1cc(Br)c(=O)[nH]c1=O,inactive,inactive,inactive
C[C@@H]1CN([C@@H](C)CO)C(=O)Cc2cc(NS(C)(=O)=O)ccc2O[C@@H]1CN(C)S(=O)(=O)c1ccccc1,inactive,inactive,inactive
COc1ccc(NC(=O)Nc2ccc3c(c2)C(=O)N([C@@H](C)CO)C[C@H](C)[C@H](CN(C)Cc2ccncc2)OCCCC[C@@H](C)O3)cc1,inactive,inactive,inactive
C[C@@H]1CCCCO[C@@H](CN(C)CC2CCCCC2)[C@H](C)CN([C@H](C)CO)C(=O)c2cc(NC(=O)Nc3ccc(C(F)(F)F)cc3)ccc2O1,active,active,inactive
Cc1csc2sc(C(=O)Oc3ccc(Cl)cc3)c(C)c12,inactive,inactive,inactive
CC(C)NC(=O)Nc1ccc2c(c1)C(=O)N([C@@H](C)CO)C[C@H](C)[C@@H](CN(C)S(C)(=O)=O)OCCCC[C@@H](C)O2,inactive,inactive,inactive
C[C@@H]1CN([C@@H](C)CO)C(=O)c2cccc(NS(=O)(=O)c3ccc(Cl)cc3)c2O[C@H]1CN(C)Cc1ccc(-c2ccccc2)cc1,inactive,inactive,inactive
CN1CCN(C(=O)C[C@H]2C=C[C@@H](NC(=O)c3ccc4c(c3)OCO4)[C@@H](CO)O2)CC1,inactive,inactive,inactive
C=C(CO)C(=O)O[C@@H]1[C@H]2C(=C)C(=O)O[C@@H]2[C@H]2O[C@]2(C)CC/C=C(/C(=O)OC)[C@H]1OC(C)=O,active,active,inactive

SMILES,cytotoxicity call [1],cytotoxicity call [2],growth inhibition call [3]
C[C@@H]1CN([C@@H](C)CO)C(=O)c2cccc(NC(=O)c3ccc(-c4nccs4)cc3)c2O[C@@H]1CN(C)Cc1ccc(C(=O)Nc2ccccc2N)cc1,inactive,active,inactive
CCCOc1ccnc2c1c(=O)n(C)c(=O)n2C,inactive,inactive,inactive
COC(=O)C[C@H]1CC[C@@H]2[C@H](COC[C@H](O)CN2S(=O)(=O)c2ccc(F)cc2)O1,inactive,inactive,inactive
CNC[C@@H]1OCCCC[C@@H](C)Oc2ccc(NS(=O)(=O)c3c(C)noc3C)cc2C(=O)N([C@H](C)CO)C[C@H]1C,inactive,inactive,inactive
C[C@@H]1CCCCO[C@@H](CN(C)C(=O)CCCN(C)C)[C@@H](C)CN([C@H](C)CO)C(=O)c2cc(N(C)C)ccc2O1,inactive,inactive,inactive
COc1ccc(S(=O)(=O)Nc2ccc3c(c2)C(=O)N([C@@H](C)CO)C[C@@H](C)[C@H](CN(C)Cc2ccc(C(F)(F)F)cc2)OCCCC[C@H](C)O3)cc1,active,active,inactive
COc1ccc(CN(C)C[C@H]2OCCCC[C@H](C)Oc3ccc(NS(=O)(=O)c4ccccc4)cc3C(=O)N([C@H](C)CO)C[C@@H]2C)cc1,inactive,inactive,inactive
C[C@@H]1CCCCO[C@H](CN(C)C(=O)Nc2cccc3ccccc23)[C@H](C)CN([C@H](C)CO)C(=O)c2cc(NS(C)(=O)=O)ccc2O1,inactive,active,inactive
C[C@H]1CN([C@@H](C)CO)C(=O)c2cc(NC(=O)CCCN(C)C)ccc2O[C@H]1CN(C)S(=O)(=O)c1cccs1,inactive,inactive,inactive
Cc1noc(C)c1NC(=O)N(C)C[C@H]1Oc2ccc(NC(=O)Nc3cccc4ccccc34)cc2C(=O)N([C@@H](C)CO)C[C@H]1C,inactive,inactive,inactive
C[C@@H]1CN([C@H](C)CO)C(=O)Cc2cc(NS(=O)(=O)c3ccc(Cl)cc3)ccc2O[C@@H]1CN(C)S(=O)(=O)c1cn(C)cn1,inactive,inactive,inactive
C[C@@H]1CN([C@H](C)CO)C(=O)c2cccc(NC(=O)c3ccncc3)c2O[C@H]1CN(C)S(=O)(=O)c1cccs1,inactive,inactive,inactive
COc1cc(/C=C/C(=O)C2=C(NCCc3ccccc3)S[C@H](c3ccc(O)c(OC)c3)CC2=O)ccc1O,inactive,inactive,inactive
C[C@@H]1CN([C@@H](C)CO)C(=O)Cc2cc(NC(=O)CCN3CCOCC3)ccc2O[C@H]1CN(C)S(=O)(=O)c1cccs1,inactive,inactive,inactive
COc1ccc(NC(=O)Nc2ccc3c(c2)C(=O)N([C@H](C)CO)C[C@H](C)[C@@H](CN(C)Cc2ccc4c(c2)OCO4)OCCCC[C@H](C)O3)cc1,inactive,inactive,inactive
C[C@@H]1CN([C@@H](C)CO)C(=O)c2cc(NS(=O)(=O)c3ccccc3)ccc2O[C@H]1CN(C)Cc1ccc(-c2ccccc2)cc1,inactive,active,inactive
COc1ccc([Si](C)(C)[C@@H]2[C@@H](CCO)O[C@]3(C(=O)N(Cc4ccccc4)c4ccc(N5C(=O)c6ccccc6Oc6ccccc65)cc43)[C@H]2C)cc1,inactive,inactive,inactive
C[C@@H]1CN([C@@H](C)CO)C(=O)c2cc(C#Cc3cccc(F)c3)cnc2O[C@@H]1CN(C)C(=O)C1CCOCC1,inactive,inactive,inactive
O=S1(=O)CC[C@H](S(=O)(=O)N2CCOCC2)C1,inactive,inactive,inactive

SMILES,cytotoxicity call [1],cytotoxicity call [2],growth inhibition call [3]
CC(C)NC(=O)N[C@@H]1C=C[C@@H](CC(=O)NCCN2CCCC2)O[C@H]1CO,inactive,inactive,inactive
CO[C@@H]1CN(C)C(=O)c2cc(NS(=O)(=O)CC(F)(F)F)ccc2OC[C@@H](C)N(Cc2ccccn2)C[C@H]1C,inactive,inactive,inactive
Cc1noc(C)c1NC(=O)Nc1ccc2c(c1)CC(=O)N([C@H](C)CO)C[C@@H](C)[C@H](CN(C)Cc1ccc(Cl)c(Cl)c1)O2,inactive,inactive,inactive
CN(C)S(=O)(=O)N1CCN(CC(=O)Nc2ccc(Br)cc2)CC1,inactive,inactive,inactive
COc1ccc(CN(C)C[C@@H]2OCCCC[C@@H](C)Oc3ccc(NC(=O)Nc4cccc5ccccc45)cc3C(=O)N([C@@H](C)CO)C[C@H]2C)cc1,active,active,inactive
CC(=O)c1ccc(S(=O)(=O)N2[C@@H]3CC[C@@H](C3)[C@H]2c2nc3cccc(OCc4ccccc4)c3[nH]2)cc1,inactive,inactive,inactive
COc1ccccc1C(=O)N1CCNCC1,inactive,inactive,inactive
C[C@@H]1CN([C@@H](C)CO)C(=O)c2cc(NC(=O)Nc3ccc(C(F)(F)F)cc3)ccc2O[C@@H]1CN(C)Cc1ccc(C(F)(F)F)cc1,active,active,inactive
C[C@@H]1CCCCO[C@H](CN(C)C(=O)c2ccccc2)[C@@H](C)CN([C@@H](C)CO)C(=O)c2cc(NC(=O)Cc3ccccc3)ccc2O1,inactive,inactive,inactive
O=C(C[C@H]1CC[C@H]2[C@@H](COC[C@@H](O)CN2S(=O)(=O)c2ccc(Cl)cc2)O1)NCCN1CCCC1,inactive,inactive,inactive
COc1cccc(C#Cc2cnc3c(c2)C(=O)N([C@H](C)CO)C[C@@H](C)[C@@H](CN(C)C(=O)C2CCC2)O3)c1,inactive,inactive,inactive
CC/C=C\C/C=C\C/C=C\C/C=C\C/C=C\CCCC(=O)O,inactive,inactive,inactive
C[C@@H]1CCCCO[C@H](CN(C)S(=O)(=O)c2cccs2)[C@H](C)CN([C@H](C)CO)C(=O)c2cc(NS(C)(=O)=O)ccc2O1,inactive,inactive,inactive
COCCNC(=O)C[C@H]1C[C@H]2c3cc(NC(=O)COC)ccc3O[C@H]2[C@H](CO)O1,inactive,inactive,inactive
COCC(=O)N1C[C@@H](C)[C@@H](OC)CN(C)C(=O)c2cc(NC(=O)Nc3ccccc3)ccc2OC[C@H]1C,inactive,inactive,inactive
COc1ccc(COC[C@]23NC(=S)N(C(=O)c4ccccc4)[C@H](c4ccccc4O2)[C@H]3CO[Si](C)(C)C(C)(C)C)cc1,inactive,inactive,inactive
C[C@@H]1CN([C@H](C)CO)S(=O)(=O)c2ccc(-c3cccc(C#N)c3)cc2O[C@H]1CN(C)C(=O)c1cccnc1,inactive,inactive,inactive
CCOC(=O)[C@H]1CC(CC2OCCO2)=NO1,inactive,inactive,inactive
